According to publication PMC10668032:
This is one part of the list. At the low end of the ranking the order means little.

Molecular target: SIX1 homeodomain (reference allele) (UniProt Q15475)
Assay: universal protein binding microarray
Details: Universal all-10-mer PBM (8x60K, AMADID 030236), 300 nM GST-tagged protein, Alexa Fluor 488 anti-GST; buffer, salt, pH and temperature not stated; high values mean tight binding; most listed sequences are background and not binding sites; double strand, one strand shown

Sequence | binding signal
AGAGTCCT | -0.175 E-score
CTCTAGAC | 0.126 E-score
GGCAGCCC | -0.024 E-score
ATGGATGC | -0.0951 E-score
AAGTGGGT | -0.0364 E-score
ATCTGGAA | 0.112 E-score
ACATGAAC | -0.133 E-score
TTGATAAA | -0.143 E-score
TAGAGGGA | 0.0699 E-score
AGAGAATC | 0.0208 E-score
GATACCAC | 0.462 E-score
GAGTTGTA | -0.0518 E-score
AGTATTGA | 0.193 E-score
AAACAGTA | -0.0174 E-score
CTTGTGTA | -0.075 E-score
GCCATAGC | -0.117 E-score
ACTCGAAG | -0.104 E-score
GAAAGGGC | -0.291 E-score
AGCCCAAG | -0.276 E-score
ACTTACAA | -0.0971 E-score
AGGGTGTC | 0.435 E-score
CCTTAATA | 0.103 E-score

Sequence | binding signal
AGGCAGGG | 0.0143 E-score
AACGACTT | -0.41 E-score
AATTAGAA | -0.214 E-score
ACTGATCC | 0.398 E-score
CATACATA | 0.00813 E-score
ATGATGCA | -0.00266 E-score
CTCGGACA | -0.07 E-score
AATGCGAC | 0.0221 E-score
ATACTTAC | 0.218 E-score
TCAAGTCA | -0.185 E-score
CGTAGTGA | 0.182 E-score
AACGGCCA | -0.0166 E-score
ACCGTGAC | -0.0326 E-score
GTTAAGCA | -0.0994 E-score
AACCTACG | -0.24 E-score
GCTTGGAA | -0.301 E-score
AAGTGCTC | -0.211 E-score
GGACGCAA | -0.127 E-score
CGTCTGAA | -0.0951 E-score
AAATTCAG | -0.189 E-score
CTTGGTGA | 0.0931 E-score
ATTGTCAC | -0.0222 E-score

Sequence | binding signal
GCTACCGA | -0.162 E-score
CAATCGCC | -0.221 E-score
AATTGGAA | -0.23 E-score
AAGATCAA | 0.201 E-score
CTCAAAAG | -0.0897 E-score
GACGCTGA | -0.211 E-score
ATACCTCC | 0.403 E-score
ACATGATC | 0.279 E-score
TGGCCTAA | -0.145 E-score
GGCGGCGA | -0.142 E-score
CGCGACTA | 0.0605 E-score
AATCGCGT | -0.00681 E-score
CTCGCGGC | -0.106 E-score
AGGATGCC | 0.0353 E-score
ATCTGCAT | 0.222 E-score
AATCTGGT | 0.133 E-score
GCTCGGTA | 0.0872 E-score
ACGGCTTG | -0.14 E-score
CTGCGATA | 0.342 E-score
AGTTGCTG | -0.0685 E-score
TAAGGTCA | -0.287 E-score
ATCCTCAA | 0.216 E-score

Sequence | binding signal
ACTAGACA | 0.0677 E-score
GTGCCGGA | 0.12 E-score
CGGAGACA | 0.0527 E-score
ACGTGCAG | -0.103 E-score
AGACTATC | 0.239 E-score
AACCCTAG | -0.147 E-score
GATGGAAA | -0.193 E-score
ATGGGTGA | 0.139 E-score
ATAGAGAG | -0.0711 E-score
CTTGCTAA | -0.296 E-score
CAGGCTCA | 0.155 E-score
CCTCCGAC | -0.0789 E-score
TGTGTGAA | -0.127 E-score
GTTTAGAA | -0.0372 E-score
AAATGTCC | -0.284 E-score
TAGACTGA | -0.0843 E-score
ACCCCGTG | 0.118 E-score
ACGAATGG | -0.217 E-score
CTTGCAGC | -0.289 E-score
CGCTTCGC | -0.357 E-score
